# Assay results reported in the supplement of paper PMC4166925.
# ± gives the standard deviation of the averaged measurements. Whole data set: some 33,000 sequences, median “E-score (dimensionless, -0.5 to 0.5)” near -0.046, cut for the highest 2% near 0.36. Some of the results follow.
# Tested on: T1, SpTbr T-box DNA-binding domain (GST fusion)
# T1 sequence: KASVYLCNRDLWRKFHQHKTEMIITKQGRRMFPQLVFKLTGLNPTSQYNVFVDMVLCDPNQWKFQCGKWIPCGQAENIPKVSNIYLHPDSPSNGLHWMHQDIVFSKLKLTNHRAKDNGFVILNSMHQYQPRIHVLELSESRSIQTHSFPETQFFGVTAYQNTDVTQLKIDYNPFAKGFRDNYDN
# Assay: PBM E-score of 8-mer (E-score (dimensionless, -0.5 to 0.5)); Tbr is Tbrain of the sea star Patiria miniata (Pm) or the sea urchin Strongylocentrotus purpuratus (Sp); higher = stronger binding preference; most listed sequences are background and not binding sites
# Conditions: the construct has about 5 more residues each side
# Outline: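 Universal Agilent oligonucleotide arrays, made double-stranded by primer extension, were incubated with 200 nM GST-fused Tbr T-box DNA-binding domain in PBS (pH 7.5). The protein was expressed in BL21 E. coli at 20 °C and purified by glutathione affinity chromatography. After scanning and quantification, the Universal PBM Analysis Suite assigned an enrichment E-score to each ungapped 8-mer, averaged over duplicate arrays.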
row,Sequence,PBM E-score of 8-mer
1,GCTGGGTA,-0.245 ± 0.084
2,AACAGTAT,-0.0762 ± 0.033
3,ACTTATGG,-0.156 ± 0.017
4,CCATTGAG,0.049 ± 0.0017
5,GGAGTTTA,0.0473 ± 0.035
6,AACGTTCC,-0.144 ± 0.0034
7,CTTGAGAA,0.17 ± 0.068
8,ATTTCGTA,-0.0852 ± 0.1
9,AATTATCC,-0.0952 ± 0.027
10,ACATGGTA,0.049 ± 0.016
11,ATCAAAGG,-0.0537 ± 0.028
12,ATGAGACC,-0.223 ± 0.0095
13,CAAGGGCA,-0.222 ± 0.029
14,ACGCCATC,0.198 ± 0.021
15,CCACCGAA,-0.11 ± 0.099
16,ATTCATGA,-0.337 ± 0.033
17,ATGGCCAA,-0.23 ± 0.013
18,GTGTAATA,0.216 ± 0.07
19,GCGGGCCA,-0.033 ± 0.023
20,TACATTAA,-0.204 ± 0.013
21,AGATTTAG,-0.135 ± 0.097
22,CTCTTGTC,0.0456 ± 0.079
23,TACTGGGA,-0.15 ± 0.064
24,TGTGTTAA,0.407 ± 0.011
25,AGCGAGGG,0.154 ± 0.021

row,Sequence,PBM E-score of 8-mer
1,CGAAAGAA,-0.00235 ± 0.025
2,AGTGCGAC,0.341 ± 0.024
3,ACCCGAGG,-0.173 ± 0.0036
4,CCATTATA,-0.0941 ± 0.037
5,ATGGTTTA,-0.139 ± 0.0058
6,CTCGTTGC,-0.0203 ± 0.038
7,GTACAACA,0.00342 ± 0.013
8,GTACACAA,0.13 ± 0.0059
9,CTATGACA,0.113 ± 0.043
10,GCAGGAAC,-0.0389 ± 0.047
11,ATACATGC,-0.278 ± 0.046
12,CGCGTTCA,0.153 ± 0.037
13,CATGCCGG,-0.0881 ± 0.043
14,CGTCTTGA,0.0659 ± 0.085
15,AACAGAAA,-0.0336 ± 0.082
16,ACGATGGC,0.0959 ± 0.021
17,ATCGTTGA,-0.12 ± 0.015
18,AGCATTAG,-0.192 ± 0.063
19,ATCGTCAA,0.158 ± 0.0046
20,CACCTTAG,0.401 ± 0.04
21,CTCTCTGC,-0.175 ± 0.011
22,ACCCACGT,0.143 ± 0.023
23,AAACGGTA,-0.16 ± 0.014
24,ACATTTAT,-0.0648 ± 0.056
25,GCTCTTTA,-0.3325 ± 0.0015

row,Sequence,PBM E-score of 8-mer
1,ACGGACTC,-0.184 ± 0.058
2,GCAACCCC,0.0268 ± 0.005
3,ACTGAGAA,0.022 ± 0.075
4,ATGACGAG,-0.115 ± 0.059
5,ATAAATGG,-0.262 ± 0.03
6,CGGGATTA,-0.321 ± 0.048
7,GAATAGTA,-0.0624 ± 0.043
8,CGTATCCA,-0.287 ± 0.016
9,AGTAAATC,-0.0239 ± 0.03
10,GGATAAGA,-0.142 ± 0.0051
11,AACACGCC,0.245 ± 0.033
12,GAAATGTC,0.00241 ± 0.033
13,AAGATTGA,0.0172 ± 0.018
14,CACTCCCG,0.179 ± 0.021
15,CGGACAAG,-0.0574 ± 0.0041
16,CTAAGAAG,0.116 ± 0.0052
17,CAAACCCA,-0.0174 ± 0.031
18,GAGCGACC,0.0942 ± 0.02
19,AAGCACCA,-0.111 ± 0.097
20,AATGCCCG,0.0567 ± 0.034
21,ACCAATAG,-0.189 ± 0.01
22,CCTCTGCC,-0.0817 ± 0.01
23,AGTGCTTG,-0.141 ± 0.018
24,CGAATGTC,0.0371 ± 0.038
25,ATTTGCCG,0.0704 ± 0.0066

row,Sequence,PBM E-score of 8-mer
1,CTCTCCTA,-0.181 ± 0.0087
2,AACATACG,-0.012 ± 0.02
3,CGAGTTTC,0.0382 ± 0.045
4,ACGGCGTG,0.232 ± 0.0069
5,AGTGGTTG,-0.0792 ± 0.038
6,GAAGGACC,-0.178 ± 0.0037
7,GAATAGCC,-0.156 ± 0.018
8,AACAGCGA,0.113 ± 0.034
9,ATGAACAA,-0.00436 ± 0.014
10,AATAGGCA,-0.136 ± 0.035
11,GAGGCTAC,-0.176 ± 0.025
12,GGACGCGA,0.0206 ± 0.062
13,AGCTGTAT,-0.252 ± 0.029
14,ACCTTACC,-0.0718 ± 0.017
15,TAGCAACA,0.273 ± 0.012
16,CCGCTAGC,0.0636 ± 0.049
17,ACTGTAGG,-0.105 ± 0.036
18,ACGAAGGA,-0.187 ± 0.049
19,AAAGGTCG,-0.112 ± 0.015
20,TCATTAAA,-0.105 ± 0.035
21,CTTACGTC,-0.104 ± 0.0097
22,TCTTAAAA,-0.101 ± 0.1
23,CTTAGTAA,-0.0946 ± 0.01
24,GTTATGGA,-0.141 ± 0.015
25,TCCATGCA,-0.18 ± 0.016

row,Sequence,PBM E-score of 8-mer
1,ACTCTACA,0.00395 ± 0.0024
2,AGCACGCT,-0.104 ± 0.025
3,CACTCCGA,0.143 ± 0.0022
4,CGAGCCTC,-0.146 ± 0.14
5,CCGCAGGA,-0.256 ± 0.054
6,ACGCCTCT,0.30412 ± 0.00015
7,CGCCGATA,0.00773 ± 0.084
8,ACCGAAGC,-0.057 ± 0.025
9,ATCGCGCG,0.337 ± 0.004
10,ACGAAGGC,0.0144 ± 0.031
11,AGGCGACC,0.012 ± 0.083
12,GATCATCA,0.0455 ± 0.025
13,ACAGAAGT,0.0979 ± 0.032
14,ATCGATCA,0.0465 ± 0.078
15,TCACCTGA,0.3337 ± 0.0032
16,GCCAGCCC,-0.216 ± 0.011
17,CCATGGAC,-0.0271 ± 0.055
18,CCGTAAAC,0.11 ± 0.086
19,ATGTGGGA,0.234 ± 0.041
20,GCTGTACA,0.049 ± 0.045
21,AATTTGCG,0.19 ± 0.056
22,GAACATTC,-0.216 ± 0.042
23,CTTGACAA,0.323 ± 0.011
24,GAGGCGAA,-0.0262 ± 0.12
25,CGAGGGTC,0.0434 ± 0.083

row,Sequence,PBM E-score of 8-mer
1,GGCCTGAC,-0.0972 ± 0.049
2,ACATTAGG,0.0477 ± 0.0036
3,CACTGGAA,-0.103 ± 0.065
4,GACAAGCA,0.111 ± 0.035
5,ATTCTTTC,-0.151 ± 0.024
6,GAGCGAGA,0.148 ± 0.024
7,AAGCTCGT,-0.152 ± 0.04
8,ACTGGAAA,-0.176 ± 0.012
9,GAAGTTTA,-0.105 ± 0.0085
10,AGTCGGCG,-0.0578 ± 0.01
11,ACTCGTGC,0.199 ± 0.015
12,GAGGGATC,0.0589 ± 0.031
13,CCCAACGA,-0.202 ± 0.044
14,ACCTTAGT,-0.144 ± 0.058
15,GACGACTC,2e-05 ± 0.026
16,TAAGCAGA,-0.0352 ± 0.025
17,CCAACGCA,-0.0665 ± 0.067
18,AGGACTCA,-0.138 ± 0.053
19,AACCTGAC,0.121 ± 0.003
20,AGACCTCA,0.1 ± 0.022
21,ATGGCTCA,-0.0768 ± 0.0097
22,AATGTCCT,-0.182 ± 0.085
23,AGGTACTC,0.025 ± 0.059
24,ACCTGCGG,0.0628 ± 0.089
25,CGCATGCC,-0.243 ± 0.062

row,Sequence,PBM E-score of 8-mer
1,CACGATCA,0.233 ± 0.025
2,AGCTGAAA,-0.143 ± 0.04
3,GTAGGCCA,-0.211 ± 0.066
4,AGATGCTC,-0.204 ± 0.072
5,CAGTGGCG,0.283 ± 0.02
6,ACGTGTTG,0.367 ± 0.00092
7,CGTCCCAG,-0.147 ± 0.019
8,CGACATAA,0.00045 ± 0.028
9,ACCGATGG,-0.0937 ± 0.019
10,AGCTATAC,-0.146 ± 0.0067
11,GAAGTTGC,0.157 ± 0.0091
12,CTCGCAGC,0.164 ± 0.029
13,GATAACAA,0.27 ± 0.027
14,GAAGACTA,-0.1147 ± 0.00035
15,GATGGCCC,-0.0565 ± 0.029
16,GCTACTTA,-0.197 ± 0.0028
17,ACTAACGG,0.184 ± 0.028
18,ATGGCGTA,-0.0961 ± 0.0076
19,CATGGTGA,0.157 ± 0.0046
20,GCGTCCCC,0.00456 ± 0.02
21,AGGGTGGC,0.175 ± 0.056
22,CGCTCGAG,-0.163 ± 0.035
23,GACTGAGA,-0.163 ± 0.0075
24,CTACTCCA,-0.0404 ± 0.026
25,ACTCGCCT,0.0713 ± 0.046

row,Sequence,PBM E-score of 8-mer
1,ACCGACCT,0.0764 ± 0.062
2,CTCCACGC,0.0274 ± 0.067
3,CCCTAGTA,-0.122 ± 0.074
4,GACTCTGC,-0.1398 ± 0.00023
5,GGAATGTA,-0.184 ± 0.018
6,CTACCTAA,-0.245 ± 0.018
7,AGCTGGAC,-0.17 ± 0.059
8,AAAACTAC,0.0452 ± 0.013
9,AACAGGAT,-0.0627 ± 0.049
10,GGGCCAAC,-0.055 ± 0.057
11,CTTTGGCA,0.3 ± 0.042
12,AAAAGGAA,-0.00645 ± 0.021
13,CCAATGTC,0.0383 ± 0.068
14,ACCGGACC,-0.14 ± 0.028
15,CATGGCTC,-0.00838 ± 0.041
16,CCCAGGGC,-0.114 ± 0.057
17,GGTCAAAA,-0.22 ± 0.035
18,CATGTGAA,0.218 ± 0.0025
19,GTGACATA,0.292 ± 0.019
20,CTCCAGAG,-0.1883 ± 0.00025
21,CCTCCTAG,-0.129 ± 0.066
22,AGGACTGG,-0.282 ± 0.072
23,AATTCAAA,-0.135 ± 0.021
24,ACCAAGGG,-0.055 ± 0.07
25,GGGTGTAA,0.386 ± 0.0076

row,Sequence,PBM E-score of 8-mer
1,AGGGTGCC,0.267 ± 0.013
2,GGTCGCGA,0.335 ± 0.017
3,ATAGTCAA,-0.0249 ± 0.04
4,CACAAAGG,-0.124 ± 0.044
5,AGCAGACA,0.0593 ± 0.041
6,ACGGACAT,-0.0905 ± 0.036
7,CCACAGCC,-0.0536 ± 0.0064
8,CCCAGTCC,-0.159 ± 0.062
9,CCCACTGA,-0.2 ± 0.018
10,CACGGAAA,0.00884 ± 0.029
11,ATCACAAT,0.212 ± 0.042
12,TAGATGGA,-0.216 ± 0.0073
13,GAGTCCGC,-0.156 ± 0.013
14,GGACGCAC,0.0226 ± 0.0051
15,GTAGAATA,-0.156 ± 0.016
16,TCCACGCA,0.223 ± 0.051
17,ACGTGACG,0.311 ± 0.052
18,CTAGCAAC,0.226 ± 0.0097
19,CAGCTCGG,-0.132 ± 0.057
